Test results published in article PMC3085482, “Phosphorylation-Dependent Differential Regulation of Plant Growth, Cell Death, and Innate Immunity by the Regulatory Receptor-Like Kinase BAK1” (PLoS Genetics, 2011).
Results are given in words; binding and its absence hold for the method and conditions named. Binding seen in cells or lysates may run through a third protein. Some entries that bind do so weakly or less than the wild type. For part of these data: Sequences can lack the tags named with a protein.

Protein sequences, listed by entry. Tags and fused reporters are not part of them. Lines headed by an entry give the natural chain unless they say otherwise; changes in a name come on top. Chains listed by the source or under a name are the forms on record and can include a tag or linker. Residues count along the entry.
UniProt O22476, residues 24-1196: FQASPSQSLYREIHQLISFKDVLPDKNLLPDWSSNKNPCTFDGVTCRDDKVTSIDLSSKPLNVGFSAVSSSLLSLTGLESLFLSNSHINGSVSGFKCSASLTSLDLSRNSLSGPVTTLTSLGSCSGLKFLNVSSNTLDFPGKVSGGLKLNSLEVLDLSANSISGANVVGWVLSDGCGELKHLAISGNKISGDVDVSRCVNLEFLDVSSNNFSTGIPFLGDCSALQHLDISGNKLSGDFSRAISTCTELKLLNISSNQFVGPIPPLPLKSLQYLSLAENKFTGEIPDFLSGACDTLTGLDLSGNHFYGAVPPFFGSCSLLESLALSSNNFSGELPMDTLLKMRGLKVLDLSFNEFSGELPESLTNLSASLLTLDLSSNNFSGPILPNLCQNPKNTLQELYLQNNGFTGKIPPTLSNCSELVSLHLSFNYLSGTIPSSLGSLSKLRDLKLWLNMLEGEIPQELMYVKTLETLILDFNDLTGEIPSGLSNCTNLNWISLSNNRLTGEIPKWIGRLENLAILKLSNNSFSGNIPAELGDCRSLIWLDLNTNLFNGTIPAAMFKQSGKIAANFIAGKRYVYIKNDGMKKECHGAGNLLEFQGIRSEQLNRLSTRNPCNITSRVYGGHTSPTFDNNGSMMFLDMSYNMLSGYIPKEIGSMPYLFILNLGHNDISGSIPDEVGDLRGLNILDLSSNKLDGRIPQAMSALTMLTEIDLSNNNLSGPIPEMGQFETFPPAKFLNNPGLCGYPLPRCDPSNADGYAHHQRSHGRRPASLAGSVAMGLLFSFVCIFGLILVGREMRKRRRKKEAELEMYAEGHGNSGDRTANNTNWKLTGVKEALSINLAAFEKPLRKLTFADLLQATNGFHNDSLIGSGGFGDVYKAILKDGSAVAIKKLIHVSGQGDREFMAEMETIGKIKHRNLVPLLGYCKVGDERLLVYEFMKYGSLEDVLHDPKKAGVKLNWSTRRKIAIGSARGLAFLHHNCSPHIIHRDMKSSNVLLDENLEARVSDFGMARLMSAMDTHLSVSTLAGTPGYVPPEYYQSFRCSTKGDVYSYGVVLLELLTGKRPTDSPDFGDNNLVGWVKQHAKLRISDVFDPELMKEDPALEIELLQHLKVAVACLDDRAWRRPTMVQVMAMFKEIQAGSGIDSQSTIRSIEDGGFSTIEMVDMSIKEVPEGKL
EFR-GFP-His (C0LGT6, residues 25-1031): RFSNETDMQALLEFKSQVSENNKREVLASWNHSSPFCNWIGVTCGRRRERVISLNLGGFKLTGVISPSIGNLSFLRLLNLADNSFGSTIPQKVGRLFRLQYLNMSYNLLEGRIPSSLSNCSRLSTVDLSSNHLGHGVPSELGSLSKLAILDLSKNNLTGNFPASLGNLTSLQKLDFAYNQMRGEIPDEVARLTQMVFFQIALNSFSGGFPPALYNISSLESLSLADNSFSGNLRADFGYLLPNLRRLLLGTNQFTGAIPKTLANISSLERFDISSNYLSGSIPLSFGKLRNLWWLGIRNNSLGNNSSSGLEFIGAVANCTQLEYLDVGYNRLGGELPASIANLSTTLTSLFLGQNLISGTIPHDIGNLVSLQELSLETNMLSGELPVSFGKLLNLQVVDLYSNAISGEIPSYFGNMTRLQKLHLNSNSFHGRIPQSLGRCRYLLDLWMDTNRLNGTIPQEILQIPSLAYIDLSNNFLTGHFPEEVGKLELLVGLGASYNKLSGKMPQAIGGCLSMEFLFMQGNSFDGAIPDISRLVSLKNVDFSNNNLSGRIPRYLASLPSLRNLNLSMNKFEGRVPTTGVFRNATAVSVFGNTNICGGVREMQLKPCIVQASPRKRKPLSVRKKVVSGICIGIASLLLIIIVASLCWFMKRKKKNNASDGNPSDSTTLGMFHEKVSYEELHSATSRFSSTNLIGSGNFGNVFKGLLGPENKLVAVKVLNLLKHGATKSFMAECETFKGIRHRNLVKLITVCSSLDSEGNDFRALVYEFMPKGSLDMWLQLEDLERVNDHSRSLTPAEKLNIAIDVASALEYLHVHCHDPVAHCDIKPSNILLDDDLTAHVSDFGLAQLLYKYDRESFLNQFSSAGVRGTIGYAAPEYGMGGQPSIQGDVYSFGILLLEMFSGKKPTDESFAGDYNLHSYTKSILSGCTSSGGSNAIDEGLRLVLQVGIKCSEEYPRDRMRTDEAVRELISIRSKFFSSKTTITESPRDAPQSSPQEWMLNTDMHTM
EFR*-GFP-His (kinase-dead EFR, D849N) (C0LGT6, form named): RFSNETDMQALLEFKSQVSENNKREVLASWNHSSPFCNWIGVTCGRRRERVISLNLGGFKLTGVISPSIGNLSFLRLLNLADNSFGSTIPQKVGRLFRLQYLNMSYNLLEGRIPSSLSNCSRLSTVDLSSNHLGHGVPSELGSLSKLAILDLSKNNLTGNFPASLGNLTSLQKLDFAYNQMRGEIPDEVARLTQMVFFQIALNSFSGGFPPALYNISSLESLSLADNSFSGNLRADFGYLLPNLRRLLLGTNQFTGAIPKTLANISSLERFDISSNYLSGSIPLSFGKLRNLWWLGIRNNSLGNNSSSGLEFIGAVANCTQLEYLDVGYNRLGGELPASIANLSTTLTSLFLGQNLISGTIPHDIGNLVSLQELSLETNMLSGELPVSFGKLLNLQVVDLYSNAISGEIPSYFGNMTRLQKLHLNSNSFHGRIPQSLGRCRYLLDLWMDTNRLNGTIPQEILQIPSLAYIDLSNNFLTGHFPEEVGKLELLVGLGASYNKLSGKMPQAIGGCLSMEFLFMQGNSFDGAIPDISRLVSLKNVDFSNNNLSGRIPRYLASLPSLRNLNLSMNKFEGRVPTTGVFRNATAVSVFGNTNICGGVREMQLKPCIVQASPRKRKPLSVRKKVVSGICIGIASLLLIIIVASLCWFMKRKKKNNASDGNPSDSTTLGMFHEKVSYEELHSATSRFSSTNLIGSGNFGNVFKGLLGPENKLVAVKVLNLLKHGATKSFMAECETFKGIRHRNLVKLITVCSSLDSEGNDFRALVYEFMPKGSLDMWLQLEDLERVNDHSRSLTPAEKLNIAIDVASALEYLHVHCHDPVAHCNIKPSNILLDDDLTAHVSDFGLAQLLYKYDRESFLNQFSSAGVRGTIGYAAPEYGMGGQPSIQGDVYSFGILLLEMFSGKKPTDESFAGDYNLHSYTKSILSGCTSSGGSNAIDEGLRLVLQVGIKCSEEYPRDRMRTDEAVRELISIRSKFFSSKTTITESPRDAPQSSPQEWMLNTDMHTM

Assays:
[1] = target: T1, BAK1-GFP (BAK1p::BAK1-eGFP) (Arabidopsis thaliana) (UniProt Q94F62); experiment: co-IP; as a5 but leaves not treated with elf18; IP with GFP-Trap beads, blot with anti-HA
T1 sequence: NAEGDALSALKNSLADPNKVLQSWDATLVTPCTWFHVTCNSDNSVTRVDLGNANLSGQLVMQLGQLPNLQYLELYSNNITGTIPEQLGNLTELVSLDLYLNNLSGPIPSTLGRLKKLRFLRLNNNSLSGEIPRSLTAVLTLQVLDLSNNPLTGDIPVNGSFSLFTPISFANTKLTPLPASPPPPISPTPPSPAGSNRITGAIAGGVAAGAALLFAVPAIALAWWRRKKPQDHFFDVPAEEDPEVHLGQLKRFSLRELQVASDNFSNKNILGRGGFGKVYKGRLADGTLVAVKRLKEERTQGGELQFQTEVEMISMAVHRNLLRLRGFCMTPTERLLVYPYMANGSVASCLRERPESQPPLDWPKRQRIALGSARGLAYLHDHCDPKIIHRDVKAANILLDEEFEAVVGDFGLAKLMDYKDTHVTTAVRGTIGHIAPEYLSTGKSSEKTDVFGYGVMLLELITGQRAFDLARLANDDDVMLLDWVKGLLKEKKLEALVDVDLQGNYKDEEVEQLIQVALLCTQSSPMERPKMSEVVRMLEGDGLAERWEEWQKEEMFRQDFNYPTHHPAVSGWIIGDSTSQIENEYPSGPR

[2] = target: T1, BAK1-GFP (BAK1p::BAK1-eGFP) (Arabidopsis thaliana); experiment: co-IP; N. benthamiana leaves transiently co-expressing EFR-HA3 with BAK1-GFP or BAK1-5-GFP, treated with 100 nM elf18 for 5 min; IP with GFP-Trap beads, blot with anti-GFP or anti-HA
[3] = target: T2, BAK1-5-GFP (BAK1p::BAK1-5-eGFP) (Arabidopsis thaliana) (UniProt Q94F62); experiment: as above
T2 sequence: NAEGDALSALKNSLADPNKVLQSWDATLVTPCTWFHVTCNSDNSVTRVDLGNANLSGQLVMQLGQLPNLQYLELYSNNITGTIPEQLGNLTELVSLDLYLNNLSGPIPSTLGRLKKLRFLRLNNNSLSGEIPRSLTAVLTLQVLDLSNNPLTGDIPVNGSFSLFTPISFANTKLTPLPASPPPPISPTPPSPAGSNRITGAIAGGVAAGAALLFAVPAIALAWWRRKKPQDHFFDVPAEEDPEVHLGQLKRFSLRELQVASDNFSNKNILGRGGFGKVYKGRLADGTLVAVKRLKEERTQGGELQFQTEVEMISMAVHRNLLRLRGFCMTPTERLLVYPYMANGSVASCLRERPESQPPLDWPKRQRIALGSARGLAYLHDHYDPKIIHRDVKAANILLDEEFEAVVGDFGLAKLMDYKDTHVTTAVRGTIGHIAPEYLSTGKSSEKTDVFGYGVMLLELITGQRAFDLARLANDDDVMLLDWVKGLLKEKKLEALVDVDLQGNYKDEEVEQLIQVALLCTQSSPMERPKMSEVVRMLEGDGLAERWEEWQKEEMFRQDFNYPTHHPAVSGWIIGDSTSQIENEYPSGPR

[4] = target: BRI1 (brassinosteroid receptor, LRR-RK), endogenous (Arabidopsis thaliana (endogenous in Col-0 and bak1-5)) (UniProt O22476); experiment: co-IP; A. thaliana Col-0 or bak1-5 treated or not with 100 nM BL for 1.5 h; IP with anti-BRI1 antibodies and IgG beads, blot with anti-BRI1 or anti-BAK1
[5] = target: EFR*-GFP-His (kinase-dead EFR, D849N) (Arabidopsis thaliana) (UniProt C0LGT6); experiment: co-IP; N. benthamiana leaves transiently co-expressing EFR-GFP-His, EFR*-GFP-His, FLS2-GFP-His or FLS2*-GFP-His with BAK1-HA3 or BAK1*-HA3, after elicitation with 100 nM elf18 or flg22; IP with anti-GFP (GFP-trap) beads, blot with anti-GFP or anti-HA
[6] = target: EFR-GFP-His (Arabidopsis thaliana) (UniProt C0LGT6); experiment: as above
[7] = target: EFR-GFP-His (Arabidopsis thaliana) (UniProt C0LGT6); experiment: co-IP; as a9 but before elicitation (no elf18 or flg22); IP with anti-GFP (GFP-trap) beads, blot with anti-HA
[8] = target: T1, BAK1-GFP (BAK1p::BAK1-eGFP) (Arabidopsis thaliana); experiment: co-IP; N. benthamiana leaves transiently co-expressing CERK1-HA3 with BAK1-GFP or BAK1-5-GFP, treated or not with 100 mg/mL chitin for 5 min; IP with GFP-Trap beads, blot with anti-GFP or anti-HA
[9] = target: T2, BAK1-5-GFP (BAK1p::BAK1-5-eGFP) (Arabidopsis thaliana); experiment: as above

Molecule | binding [4] | binding [5] | binding [6] | further results
EFR-HA3 (EFRp::EFR-3xHA) (from UniProt C0LGT6 25-1031) (receptor) | – | – | – | binding [1]: no binding (condition: without elf18); binding [2]: binds; binding [3]: binds
BAK1-5 (BAK1 C408Y), endogenous protein of the bak1-5 mutant (receptor, UniProt Q94F62 26-615) NAEGDALSALKNSLADPNKVLQSWDATLVTPCTWFHVTCNSDNSVTRVDLGNANLSGQLVMQLGQLPNLQYLELYSNNITGTIPEQLGNLTELVSLDLYLNNLSGPIPSTLGRLKKLRFLRLNNNSLSGEIPRSLTAVLTLQVLDLSNNPLTGDIPVNGSFSLFTPISFANTKLTPLPASPPPPISPTPPSPAGSNRITGAIAGGVAAGAALLFAVPAIALAWWRRKKPQDHFFDVPAEEDPEVHLGQLKRFSLRELQVASDNFSNKNILGRGGFGKVYKGRLADGTLVAVKRLKEERTQGGELQFQTEVEMISMAVHRNLLRLRGFCMTPTERLLVYPYMANGSVASCLRERPESQPPLDWPKRQRIALGSARGLAYLHDHYDPKIIHRDVKAANILLDEEFEAVVGDFGLAKLMDYKDTHVTTAVRGTIGHIAPEYLSTGKSSEKTDVFGYGVMLLELITGQRAFDLARLANDDDVMLLDWVKGLLKEKKLEALVDVDLQGNYKDEEVEQLIQVALLCTQSSPMERPKMSEVVRMLEGDGLAERWEEWQKEEMFRQDFNYPTHHPAVSGWIIGDSTSQIENEYPSGPR | binds | – | – | –
BAK1-HA3 (receptor, UniProt Q94F62 26-615) NAEGDALSALKNSLADPNKVLQSWDATLVTPCTWFHVTCNSDNSVTRVDLGNANLSGQLVMQLGQLPNLQYLELYSNNITGTIPEQLGNLTELVSLDLYLNNLSGPIPSTLGRLKKLRFLRLNNNSLSGEIPRSLTAVLTLQVLDLSNNPLTGDIPVNGSFSLFTPISFANTKLTPLPASPPPPISPTPPSPAGSNRITGAIAGGVAAGAALLFAVPAIALAWWRRKKPQDHFFDVPAEEDPEVHLGQLKRFSLRELQVASDNFSNKNILGRGGFGKVYKGRLADGTLVAVKRLKEERTQGGELQFQTEVEMISMAVHRNLLRLRGFCMTPTERLLVYPYMANGSVASCLRERPESQPPLDWPKRQRIALGSARGLAYLHDHCDPKIIHRDVKAANILLDEEFEAVVGDFGLAKLMDYKDTHVTTAVRGTIGHIAPEYLSTGKSSEKTDVFGYGVMLLELITGQRAFDLARLANDDDVMLLDWVKGLLKEKKLEALVDVDLQGNYKDEEVEQLIQVALLCTQSSPMERPKMSEVVRMLEGDGLAERWEEWQKEEMFRQDFNYPTHHPAVSGWIIGDSTSQIENEYPSGPR | – | binds | binds | binding [7]: no binding (condition: without elf18)
BAK1*-HA3 (kinase-dead BAK1, D416N) (receptor, UniProt Q94F62 26-615) NAEGDALSALKNSLADPNKVLQSWDATLVTPCTWFHVTCNSDNSVTRVDLGNANLSGQLVMQLGQLPNLQYLELYSNNITGTIPEQLGNLTELVSLDLYLNNLSGPIPSTLGRLKKLRFLRLNNNSLSGEIPRSLTAVLTLQVLDLSNNPLTGDIPVNGSFSLFTPISFANTKLTPLPASPPPPISPTPPSPAGSNRITGAIAGGVAAGAALLFAVPAIALAWWRRKKPQDHFFDVPAEEDPEVHLGQLKRFSLRELQVASDNFSNKNILGRGGFGKVYKGRLADGTLVAVKRLKEERTQGGELQFQTEVEMISMAVHRNLLRLRGFCMTPTERLLVYPYMANGSVASCLRERPESQPPLDWPKRQRIALGSARGLAYLHDHCDPKIIHRNVKAANILLDEEFEAVVGDFGLAKLMDYKDTHVTTAVRGTIGHIAPEYLSTGKSSEKTDVFGYGVMLLELITGQRAFDLARLANDDDVMLLDWVKGLLKEKKLEALVDVDLQGNYKDEEVEQLIQVALLCTQSSPMERPKMSEVVRMLEGDGLAERWEEWQKEEMFRQDFNYPTHHPAVSGWIIGDSTSQIENEYPSGPR | – | binds | binds | –
BAK1 (BRI1-associated kinase 1, regulatory LRR-RLK), endogenous wild type (receptor, UniProt Q94F62 26-615) NAEGDALSALKNSLADPNKVLQSWDATLVTPCTWFHVTCNSDNSVTRVDLGNANLSGQLVMQLGQLPNLQYLELYSNNITGTIPEQLGNLTELVSLDLYLNNLSGPIPSTLGRLKKLRFLRLNNNSLSGEIPRSLTAVLTLQVLDLSNNPLTGDIPVNGSFSLFTPISFANTKLTPLPASPPPPISPTPPSPAGSNRITGAIAGGVAAGAALLFAVPAIALAWWRRKKPQDHFFDVPAEEDPEVHLGQLKRFSLRELQVASDNFSNKNILGRGGFGKVYKGRLADGTLVAVKRLKEERTQGGELQFQTEVEMISMAVHRNLLRLRGFCMTPTERLLVYPYMANGSVASCLRERPESQPPLDWPKRQRIALGSARGLAYLHDHCDPKIIHRDVKAANILLDEEFEAVVGDFGLAKLMDYKDTHVTTAVRGTIGHIAPEYLSTGKSSEKTDVFGYGVMLLELITGQRAFDLARLANDDDVMLLDWVKGLLKEKKLEALVDVDLQGNYKDEEVEQLIQVALLCTQSSPMERPKMSEVVRMLEGDGLAERWEEWQKEEMFRQDFNYPTHHPAVSGWIIGDSTSQIENEYPSGPR | binds | – | – | –
CERK1-HA3 (CERK1p::CERK1-3xHA) (receptor, UniProt A8R7E6 24-617) KCRTSCPLALASYYLENGTTLSVINQNLNSSIAPYDQINFDPILRYNSNIKDKDRIQMGSRVLVPFPCECQPGDFLGHNFSYSVRQEDTYERVAISNYANLTTMESLQARNPFPATNIPLSATLNVLVNCSCGDESVSKDFGLFVTYPLRPEDSLSSIARSSGVSADILQRYNPGVNFNSGNGIVYVPGRDPNGAFPPFKSSKQDGVGAGVIAGIVIGVIVALLLILFIVYYAYRKNKSKGDSFSSSIPLSTKADHASSTSLQSGGLGGAGVSPGIAAISVDKSVEFSLEELAKATDNFNLSFKIGQGGFGAVYYAELRGEKAAIKKMDMEASKQFLAELKVLTRVHHVNLVRLIGYCVEGSLFLVYEYVENGNLGQHLHGSGREPLPWTKRVQIALDSARGLEYIHEHTVPVYVHRDIKSANILIDQKFRAKVADFGLTKLTEVGGSATRGAMGTFGYMAPETVYGEVSAKVDVYAFGVVLYELISAKGAVVKMTEAVGEFRGLVGVFEESFKETDKEEALRKIIDPRLGDSYPFDSVYKMAELGKACTQENAQLRPSMRYIVVALSTLFSSTGNWDVGNFQNEDLVSLMSGR | – | – | – | binding [8]: no binding; binding [9]: no binding
